Experimental data: article PMC4336329 (PLoS ONE, 2015)
Out of some 310,000 compounds screened, about 14,000 (4.5%) showed an effect of 50% or more. The effect is printed as a negative number. The list shows a part of the results.

Target: human ether-à-go-go-related gene (hERG) potassium channel (human, UniProt Q12809)
Assay: primary screen, population patch clamp on CHO cells stably expressing hERG
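Further: peak tail current of the secondary pulse compared with the same well before compound.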

Sequence of human ether-à-go-go-related gene (hERG) potassium channel (Q12809 whole entry, looked up): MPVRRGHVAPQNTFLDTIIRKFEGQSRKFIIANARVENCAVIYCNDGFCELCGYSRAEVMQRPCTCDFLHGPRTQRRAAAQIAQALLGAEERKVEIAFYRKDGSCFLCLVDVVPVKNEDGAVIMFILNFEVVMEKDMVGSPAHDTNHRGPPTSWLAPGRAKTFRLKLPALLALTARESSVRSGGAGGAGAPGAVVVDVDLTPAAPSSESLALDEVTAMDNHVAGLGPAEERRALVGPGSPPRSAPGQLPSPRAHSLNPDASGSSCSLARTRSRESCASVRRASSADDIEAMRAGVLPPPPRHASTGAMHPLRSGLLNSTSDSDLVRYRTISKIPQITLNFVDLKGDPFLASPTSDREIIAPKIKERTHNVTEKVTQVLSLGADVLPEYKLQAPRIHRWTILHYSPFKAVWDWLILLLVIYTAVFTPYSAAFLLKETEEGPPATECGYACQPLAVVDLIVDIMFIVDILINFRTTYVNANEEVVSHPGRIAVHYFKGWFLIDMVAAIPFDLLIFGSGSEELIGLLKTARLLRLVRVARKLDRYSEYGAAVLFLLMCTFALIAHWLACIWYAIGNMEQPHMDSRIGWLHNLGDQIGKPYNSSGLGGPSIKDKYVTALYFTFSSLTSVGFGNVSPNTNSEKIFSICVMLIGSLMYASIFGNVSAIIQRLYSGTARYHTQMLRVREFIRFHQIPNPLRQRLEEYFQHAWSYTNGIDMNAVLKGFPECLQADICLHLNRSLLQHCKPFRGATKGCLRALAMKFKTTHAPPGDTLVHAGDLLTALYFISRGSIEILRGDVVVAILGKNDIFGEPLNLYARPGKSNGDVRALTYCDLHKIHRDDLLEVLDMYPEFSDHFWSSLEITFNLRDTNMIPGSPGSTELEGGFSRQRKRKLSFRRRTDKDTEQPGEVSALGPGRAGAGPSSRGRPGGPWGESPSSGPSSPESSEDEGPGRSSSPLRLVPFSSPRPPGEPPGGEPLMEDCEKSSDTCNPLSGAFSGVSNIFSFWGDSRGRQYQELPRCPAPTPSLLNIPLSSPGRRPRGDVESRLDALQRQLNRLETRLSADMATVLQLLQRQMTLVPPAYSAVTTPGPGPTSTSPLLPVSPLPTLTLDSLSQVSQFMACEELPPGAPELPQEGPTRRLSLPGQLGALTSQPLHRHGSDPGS

| SMILES | hERG current change (%, negative = inhibition) at 10uM |
| --- | --- |
| Cc1c(Cl)cccc1NC(=S)NCc1ccc(Cl)cc1 | -0.964% |
| COc1ccc(C(C(=O)NC(C)(C)C)N(Cc2ccc(F)cc2)C(=O)CCC(=O)Nc2cc(C)on2)cc1 (stereo not drawn) | -3.04% |
| Cc1cccc(OCCCC(=O)NNC(=O)c2ccc(F)cc2)c1 | -7.21% |
| COc1ccc2c(c1)c(C(=O)O)c(C)n2CC(C)C | -13.8% |
| Nc1cc(-c2cccc(F)c2)nn1S(=O)(=O)c1cccc2nsnc12 | -6.09% |
| CC(C)(C)n1nnnc1C(c1ccccc1F)N(Cc1ccco1)CC1CCCO1 (stereo not drawn) | -28.6% |
| Cc1ccc(S(=O)(=O)/N=C(/c2ccc(F)cc2)N2CCCC2)cc1 | -0.35% |
| COC(=O)c1[nH]c2ccc(C)cc2c1NS(=O)(=O)c1ccc(F)c(C)c1 | 0.0651% |
| CCOc1ccccc1-n1c(SCC(=O)NC(C)CC)nnc1-c1ccoc1C (stereo not drawn) | -12.7% |
| N#CC1=C(N)Oc2cc(N)ccc2C1c1ccc(F)cc1 (stereo not drawn) | -14.9% |
| c1cncc(-c2nc3ccccc3o2)c1 | -6.13% |
| COC(=O)[C@@H]1C[C@]2(OC(=O)c3ccccc3)C=CC(=O)C[C@@H]2N1C(=O)OCc1ccccc1 | -14.3% |
| CCn1ccnc1CNC(=O)C1CCC(=O)N(Cc2ccccc2F)C1 (stereo not drawn) | 16.3% |
| O=C(Nc1nc(-c2ccc([N+](=O)[O-])cc2)cs1)c1c(F)cccc1F | 5.73% |
| O=C(NCC(=O)N1CCN(C(=O)c2ccco2)CC1)c1cccc(Cl)c1 | -48.6% |
| C/C(=N\NC(=O)c1ccc(O)cc1)c1cccc(NC(=O)c2ccccc2C)c1 | 15.7% |
| Cc1cc(C)cc(NC(=S)NCc2cccn2C)c1 | 12.5% |
| Fc1ccc(N/N=C/c2ccc(N3CCOCC3)cc2)c(F)c1 | 11.4% |
| Cc1ccccc1S(=O)(=O)Cc1ccc(C(=O)NC2CCCCC2)o1 | -1.84% |
| COCCNC(=O)c1ccc(C(=O)C(=O)c2ccccc2)cc1 | 6.38% |
| CC(C)CC(=O)Nc1cccc(-c2nc3ccccc3o2)c1 | -6.95% |
| O=C(c1ccc(NC2=NC3CS(=O)(=O)CC3S2)cc1)N1CCN(c2ccccc2F)CC1 (stereo not drawn) | 7.83% |
| CCC1CN(C)C2Cc3c([nH]c4ccccc34)C(=O)CC1C2C(=O)OC (stereo not drawn) | 5.37% |
| CCOC(=O)N1CCN(CC(=O)Nc2ccccc2C(=O)Nc2ccccc2)CC1 | -21.3% |
